Experimental data: PubChem BioAssay AID1345082 (National Center for Advancing Translational Sciences (NCATS), 2018)
The whole screen tested about 94,000 compounds, of which about 4,000 (4.3%) were called active. The inconclusive results got no clear call from the source; some entries with a clear call stand among them for comparison. The call rests on the fitted dose curve; in most records, active means well fitted inhibition curve with a large enough effect; inconclusive means small, poorly fitted or top-dose-only effect; inactive means no such curve, though single readings can be large or run the other way. A potency beside an inconclusive call is a rough fit, not a confirmed value.
On the % scale 0 is the no-effect control and ±100 the full control effect; potency means the concentration at half of the fitted maximal effect; tags describe the fitted curve by direction and shape.

Experiment: Cytotoxic Profiling in NIH 3T3 Cell Line of Diverse Libraries Using Quantitative High-Throughput Screening; further: nearly all actives have a fitted effect of over 55% in size
Settings: NIH 3T3 viability, CellTiter-Glo ATP luminescence, 48-72 h; activity change, negative = cytotoxicity: at 96.7 µM (top of the series); series mostly up to 96.7 µM
How it was run: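 NIH 3T3 cells at 400 cells/well received 23 nL of compound by pintool and were incubated 48 or 72 h at 37 °C. Viability was read as ATP-coupled CellTiter-Glo luminescence.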
With `Cc1cc(C)cc(-c2ccc(CN3CCCC(NC(=O)c4cccc(Cl)c4)C3)cc2)c1` (stereo unspecified) the Potency was inconclusive: 31.6 µM [inhibitor, full curve, poor fit].
For `COc1cccc(C(=O)N2CCN(c3cc(-c4ccccc4)[nH]n3)CC2)c1OC`, the Potency was inconclusive: 31.6 µM [inhibitor, full curve].
In the case of `Cc1cccnc1CNC[C@H]1O[C@@H]2C[C@@H](CC(=O)N3CCOCC3)O[C@@H]2[C@@H]1O`, the “activity change, negative = cytotoxicity” value is reported as inactive: 2.27% [at 174 µM].
With `Cn1cc(C(=O)Nc2ccc3c(c2)C(=O)N2CCC[C@H]2C(=O)N3)c2ccccc21` the “activity change, negative = cytotoxicity” value was inactive: -18.9%.
In the case of `COCc1noc(C2CCCCCN2C(=O)NCc2ccc(F)cc2)n1` (stereo unspecified), the “activity change, negative = cytotoxicity” value is reported as inactive: -1.64%.
For `O=C(NC1CCCN(c2cc(-c3ccc(Cl)cc3)[nH]n2)C1)c1ccc(Br)o1` (stereo unspecified), the Potency was inconclusive: 31.6 µM [inhibitor, full curve, poor fit].
In the case of `O=C1CCN(Cc2ccc(C(F)(F)F)cc2)CCCCCCN1`, the Potency is reported as inconclusive: 50.1 µM [inhibitor, partial curve, poor fit].
For `CC1(C)C[C@H](NC(=O)c2cccnc2)[C@@]2(CCC(=O)NCCN3CCOCC3)CC[C@](C)(O)C[C@@H]12`, the “activity change, negative = cytotoxicity” value was inactive: -20.6%.
With `CCN1Cc2cc(F)ccc2N(CC(O)COc2ccc(OC)cc2)CCC1=O` (stereo unspecified) the Potency was inconclusive: 50.1 µM [inhibitor, partial curve, poor fit].
For `CC(=O)N(C)CCc1noc(C2CN(Cc3c(F)cccc3Cl)C2)n1`, the Potency was inconclusive: 50.1 µM [inhibitor, partial curve, poor fit].
For `Cc1ccc(C(=O)N2CCC(n3cc(-c4nc(C(C)C)no4)nn3)C2)cc1C` (stereo unspecified), the Potency was inconclusive: 8.91 µM [inhibitor, full curve, poor fit].
For `Cc1ccc(C(=O)N2CCCC(C(=O)N3CCC(c4ccccc4)CC3)C2)cc1` (stereo unspecified), the Potency was inconclusive: 44.7 µM [inhibitor, partial curve, poor fit].
In the case of `COCCNC(=O)c1cc(-c2cccc(F)c2)nc2c1cnn2C`, the Potency is reported as inconclusive: 100 µM [inhibitor, single point].
For `Cc1cc(C(=O)N2C[C@@H](COCC3CC3)[C@H](c3ccncc3)C2)no1`, the Potency was inconclusive: 70.8 µM [inhibitor, single point].
In the case of `O=C(NCc1ccccn1)c1ccc2nnc(-c3cccc(C(F)(F)F)c3)n2c1`, the Potency is reported as inconclusive: 44.7 µM [inhibitor, partial curve, poor fit].
With `Cc1nn2c(c1-c1ccnn1C(C)C)N(C(=O)COc1ccccc1C(N)=O)CCC2` the Potency was active: 28.2 µM.
For `Cc1cn2nc(C(=O)NCc3ccccc3F)cc2c(N(C)Cc2ccccc2)n1`, the Potency was inconclusive: 31.6 µM [inhibitor, partial curve].
For `COc1ccc(-c2cccc(C(=O)N3CCC(NC(=O)c4ccc(C)cc4)CC3)c2)nn1`, the Potency was inconclusive: 50.1 µM [inhibitor, partial curve, poor fit].
In the case of `COc1ccccc1-c1ccc(CN2CCCCC2C(=O)N2CCCC2)cc1` (stereo unspecified), the Potency is reported as inconclusive: 44.7 µM [inhibitor, partial curve, poor fit].
In the case of `COCCNc1ncc(-c2cccc(F)c2)c2c1OCC2`, the Potency is reported as inconclusive: 112 µM [inhibitor, partial curve].
With `COc1ccccc1-c1cccc(C(=O)N2CCN(C(=O)Nc3ccccc3)CC2)c1` the Potency was inconclusive: 50.1 µM [inhibitor, partial curve, poor fit].
With `N#Cc1ccc(CN2CC3(C2)NC(=O)c2ccccc2O3)cc1` the Potency was inconclusive: 79.4 µM [inhibitor, partial curve, poor fit].
For `Cc1cnc(CC2CCCN(S(=O)(=O)c3ccccc3)C2)n1CC1CC1` (stereo unspecified), the Potency was inconclusive: 50.1 µM [inhibitor, single point].
For `CCN1c2cc(C(=O)NCc3ccc(OC)cc3)ccc2C(=O)N2CCCCC21` (stereo unspecified), the Potency was inconclusive: 50.1 µM [inhibitor, partial curve, poor fit].
For `Cc1noc2c(NCCN(C)C)cc(-c3ccc(F)cc3)nc12`, the Potency was active: 39.8 µM.
For `COc1cccc(C(=O)N2CCN(c3cc(-c4ccc(Cl)cc4)[nH]n3)CC2)c1OC`, the Potency was inconclusive: 25.1 µM [inhibitor, partial curve, poor fit].
For `COc1ccc(-c2[nH]nc3ncc(-c4ccc(CO)cc4)nc23)cc1F`, the Potency was active: 28.2 µM.
With `CCNc1cc(N2CCC(CCC(=O)N3CCOCC3)CC2)ncn1` the Potency was inconclusive: 25.1 µM [inhibitor, partial curve, poor fit].
For `O=C(c1csc(-c2cccs2)n1)N1CCC2(CCCO2)CC1`, the Potency was inconclusive: 56.2 µM [inhibitor, partial curve, poor fit].
In the case of `O=C(NCc1ccccc1)N1CCCC(c2nc(CCOc3ccc(F)cc3)no2)C1` (stereo unspecified), the Potency is reported as inconclusive: 50.1 µM [inhibitor, partial curve, poor fit].
In the case of `CN(CCc1ccccn1)[C@@H]1[C@H](O)[C@H](CO)O[C@@H]1CN(Cc1ccc(F)cc1)Cc1ccc(F)cc1`, the Potency is reported as active: 50.1 µM.
With `Cc1cccc(CN2CCNc3cnc(OCc4cccnc4)cc3C2)c1` the Potency was inconclusive: 89.1 µM [inhibitor, partial curve].
For `COc1ccc(CCNC(=O)c2nc3sccn3c2-c2cccnc2)cc1`, the “activity change, negative = cytotoxicity” value was inactive: -27.1%.
For `O=C(Nc1cc(-c2ccccn2)nn1-c1ccccc1)c1cccc(Br)c1`, the Potency was inconclusive: 44.7 µM [inhibitor, partial curve, poor fit].
With `COC[C@H]1C[C@H]2C[C@H](OC(=O)Nc3cccc(Cl)c3)[C@@H](NC(=O)Nc3cccc(Cl)c3)[C@@]2(O)CO1` the Potency was inconclusive: 14.1 µM [inhibitor, partial curve, poor fit].
In the case of `Cc1ccc(Nc2ccnc(N3CCCC(C(=O)NC(C)C)C3)n2)cc1` (stereo unspecified), the Potency is reported as inconclusive: 39.8 µM [inhibitor, partial curve, poor fit].
In the case of `O=C(NC1CCCC1)N1CCCC(c2noc(COc3ccccc3)n2)C1` (stereo unspecified), the Potency is reported as inconclusive: 44.7 µM [inhibitor, partial curve, poor fit].
For `CCC(=O)N(C1CCOCC1)C1CCN(Cc2ccc(OC)c(OC)c2)CC1`, the “activity change, negative = cytotoxicity” value was inactive: -18.6%.
For `Cc1ccc(C)c(NC(=O)CN2C(=O)C(c3ccccc3)=NC23CCCC3)c1`, the Potency was inconclusive: 50.1 µM [inhibitor, partial curve, poor fit].
For `COc1ccc(Cn2c(=O)c(C(=O)N3CCN(C(=O)c4ccc(F)cc4)CC3)nc3cccnc32)cc1`, the Potency was inconclusive: 22.4 µM [inhibitor, full curve].
For `O=C(Nc1ccc(F)cc1)C1CCN(c2nc3ncccc3o2)CC1`, the “activity change, negative = cytotoxicity” value was inactive: -14%.
In the case of `COc1ccc(-c2ccc(C(=O)N3CCC(NC(=O)N4CCOCC4)CC3)cc2)nn1`, the “activity change, negative = cytotoxicity” value is reported as inactive: 3.1%.
For `Cc1noc(C)c1Cc1ccc(C(=O)N2CCc3c(nc4cc(-c5ccccc5)[nH]n4c3=O)C2)o1`, the Potency was inconclusive: 31.6 µM [inhibitor, single point].
For `O=C(c1ccc(N2CCC(NCC(c3ccccc3)c3ccccc3)CC2)cc1)N1CCCC(O)C1` (stereo unspecified), the Potency was inconclusive: 70.8 µM [inhibitor, single point].
For `CCOc1ccccc1NC(=O)CCn1ccn2nc3c(c2c1=O)CCCC3`, the “activity change, negative = cytotoxicity” value was inactive: -18.9%.
With `C[S+](=O)([O-])NC1CCN(C(=O)c2ccc(-c3cccs3)cc2)CC1` the Potency was inconclusive: 44.7 µM [inhibitor, partial curve, poor fit].
In the case of `CCN1c2cc(C(=O)Nc3ccc(OC)cc3)ccc2C(=O)N2CCCCCC21` (stereo unspecified), the Potency is reported as inconclusive: 50.1 µM [inhibitor, partial curve, poor fit].
For `Cc1ccc(Nc2ccnc(N3CCC(NC(=O)c4ccccc4)CC3)n2)cc1`, the Potency was inconclusive: 17.8 µM [inhibitor, full curve, poor fit].
With `O=C(Nc1ccc(C2(C(=O)NCc3ccc4c(c3)OCO4)CCCCC2)cc1)C1CC1` the Potency was inconclusive: 44.7 µM [inhibitor, partial curve, poor fit].
In the case of `CCn1cnnc1-c1nn(C)c2c1CN(C(=O)c1n[nH]c3ccccc13)CC2`, the “activity change, negative = cytotoxicity” value is reported as inactive: -11.2%.
For `O=C(NC1CCCCCC1)C1CCCCN1Cc1ccc(-c2ccsc2)cc1` (stereo unspecified), the “activity change, negative = cytotoxicity” value was inactive: -34.2%.
For `O=C(c1n[nH]c(=O)c2ccccc12)N1CCC(c2nc(CCOCC3CC3)no2)C1` (stereo unspecified), the “outcome” value was “inactive”.
For `COc1ccc(NC(=O)C2(C)CCc3cnc(NCc4ccccc4)nc32)cn1` (stereo unspecified), the Potency was active: 12.6 µM.
With `O=C(c1nnc(COc2ccc(F)cc2)n1-c1ccccc1)N1CCC[C@@H]1C(c1ccccc1)c1ccccc1` the Potency was active: 6.31 µM.
In the case of `COCCNc1ncc(-c2ccc(O)cc2)c2c1OCC2`, the Potency is reported as inconclusive: 70.8 µM [inhibitor, partial curve].
For `COc1cc(NC(=S)N[C@H]2CO[C@H]3[C@@H]2OC[C@@H]3n2nnnc2-c2cccc(OC)c2)cc(OC)c1`, the Potency was inconclusive: 25.1 µM [inhibitor, partial curve, poor fit].
With `CCN(CC)C(=O)CCc1c(C)nn(-c2ccccc2C)c1Oc1ccccc1` the Potency was inconclusive: 50.1 µM [inhibitor, partial curve, poor fit].
For `CCN1CCC2(CC1)Cc1ccccc1CN(S(=O)(=O)c1ccccc1)C2`, the Potency was active: 31.6 µM.
For `CCCNC(=O)N(C1CCOCC1)C1CCN(C(=O)c2ccc(CC)cc2)CC1`, the Potency was inconclusive: 44.7 µM [inhibitor, partial curve, poor fit].
With `CN(Cc1ccccc1)Cc1nc2c(n1Cc1ccccc1)C(=O)N(Cc1ccccc1F)CCN2` the Potency was inconclusive: 44.7 µM [inhibitor, partial curve, poor fit].
For `O=C1NCCCCCN(C(=O)CCCc2ccccc2)[C@H]2CCCC[C@@H]12`, the Potency was inconclusive: 50.1 µM [inhibitor, partial curve, poor fit].
